The antibiotic and cytotoxicity screens of Wong et al. (2023)
This is one part of the list.

What follows are molecules tested on HSkMC (human skeletal muscle cells) (assay: cytotoxicity call (relative viability < 0.9)). Details: 10 µM.
In the case of `O=C(C[C@H]1CC[C@@H]2[C@H](COC[C@@H](O)CN2S(=O)(=O)c2ccccc2Cl)O1)NCc1ccccc1Cl`, the cytotoxicity call is reported as “inactive”.
`C[C@@H]1CCCCO[C@@H](CN(C)Cc2ccncc2)[C@H](C)CN([C@H](C)CO)C(=O)c2cc(NC(=O)c3ccccc3)ccc2O1` was tested, and the cytotoxicity call was “inactive”.
For `C[C@@H]1CN([C@@H](C)CO)C(=O)c2cc(-c3cccc(C#N)c3)cnc2O[C@H]1CN(C)C(=O)c1cnccn1`, the cytotoxicity call was “inactive”.
For `NCc1ccoc1`, the cytotoxicity call was “inactive”.
`C[C@H](CO)N1C[C@H](C)[C@@H](CN(C)Cc2cncnc2)Oc2cc(C#CC3CCCC3)ccc2S1(=O)=O` was tested, and the cytotoxicity call was “inactive”.
In the case of `COc1ccc(CN(C)C[C@@H]2OCCCC[C@@H](C)Oc3ccc(NC(=O)Nc4c(C)noc4C)cc3C(=O)N([C@H](C)CO)C[C@H]2C)cc1`, the cytotoxicity call is reported as “inactive”.
`C[C@@H]1CN([C@H](C)CO)C(=O)c2cc(NS(=O)(=O)c3cccs3)ccc2O[C@H]1CN(C)S(C)(=O)=O` was tested, and the cytotoxicity call was “inactive”.
`OC1CCOCC1` was tested, and the cytotoxicity call was “inactive”.
In the case of `COCC#Cc1ccc2c(c1)O[C@H](CN(C)Cc1ccc(F)cc1)[C@@H](C)CN([C@@H](C)CO)S2(=O)=O`, the cytotoxicity call is reported as “inactive”.
`C[C@H]1CN([C@@H](C)CO)C(=O)c2cc(NS(=O)(=O)c3cn(C)cn3)ccc2O[C@@H]1CN(C)Cc1ccc(C(=O)Nc2ccccc2N)cc1` was tested, and the cytotoxicity call was “inactive”.

Each molecule was assayed on HepG2 (assay: cytotoxicity call (relative viability < 0.9)). Details: 10 µM.
`O=C(C[C@H]1C[C@H]2c3cc(NC(=O)Nc4ccccc4)ccc3O[C@H]2[C@H](CO)O1)NCCN1CCCCC1` was tested, and the cytotoxicity call was “inactive”.
In the case of `Cc1ccc(S(=O)(=O)Nc2ccc3c(c2)C(=O)N(C)[C@H]2CC[C@H](CC(=O)NCCc4ccncc4)O[C@H]2CO3)cc1`, the cytotoxicity call is reported as “inactive”.
In the case of `Cc1ccc(-c2nn[nH]n2)n1C`, the cytotoxicity call is reported as “inactive”.
With `C[C@@H]1CCCCO[C@H](CN(C)C(=O)Nc2ccc(F)cc2)[C@H](C)CN([C@@H](C)CO)C(=O)c2cc(NC(=O)Nc3cccc4ccccc34)ccc2O1` the cytotoxicity call was “inactive”.
In the case of `C[C@H]1CCCN(S(=O)(=O)CCN)C1`, the cytotoxicity call is reported as “inactive”.
In the case of `C[C@@H]1CN([C@@H](C)CO)C(=O)c2cc(NS(=O)(=O)c3ccccc3)ccc2O[C@@H]1CN(C)C(=O)Nc1cccc2ccccc12`, the cytotoxicity call is reported as “inactive”.
For `COc1ccccc1CNC(=O)C[C@H]1C[C@H]2c3cc(NC(=O)c4cccnc4)ccc3O[C@H]2[C@H](CO)O1`, the cytotoxicity call was “inactive”.
In the case of `C[C@@H]1CCCCO[C@H](CN(C)C(=O)C2CCCCC2)[C@@H](C)CN([C@@H](C)CO)C(=O)c2cc(NC(=O)Cc3ccccc3)ccc2O1`, the cytotoxicity call is reported as “inactive”.
`COC(=O)c1c2oc(c1C(=O)OC)C(=O)N[C@H](Cc1ccccc1)Cn1cc(nn1)[C@H](Cc1ccccc1)NC(=O)N[C@@H](CO)CC2` was tested, and the cytotoxicity call was “inactive”.
With `C[C@@H]1CN([C@@H](C)CO)S(=O)(=O)c2ccc(C#Cc3ccncc3)cc2O[C@H]1CN(C)S(=O)(=O)c1ccc(F)cc1` the cytotoxicity call was “active”.
In the case of `O=C/C=C/c1ccc(Cl)cc1`, the cytotoxicity call is reported as “inactive”.
With `C[C@H](CO)N1C[C@H](C)[C@@H](CN(C)C(=O)Nc2cccc3ccccc23)OCCCC[C@H](C)Oc2ccc(NC(=O)Nc3ccc(C(F)(F)F)cc3)cc2C1=O` the cytotoxicity call was “inactive”.
`C[C@H](CO)N1C[C@H](C)[C@H](CN(C)S(=O)(=O)c2cn(C)cn2)Oc2ccc(NC(=O)NC3CCCCC3)cc2CC1=O` was tested, and the cytotoxicity call was “inactive”.
`COCCNC(=O)C[C@@H]1CC[C@H]2[C@@H](COC[C@@H](O)CN2C(=O)Nc2ccccc2OC)O1` was tested, and the cytotoxicity call was “inactive”.
`CO[C@H]1CN(C)C(=O)c2ccc(NS(=O)(=O)CC(F)(F)F)cc2OC[C@H](C)N(Cc2ccccn2)C[C@@H]1C` was tested, and the cytotoxicity call was “inactive”.
In the case of `CC(C)(O)c1ccccc1CCC(SCC1(CC(=O)[O-])CC1)c1cccc(C=Cc2ccc3ccc(Cl)cc3n2)c1.[Na+]` (stereo not given), the cytotoxicity call is reported as “inactive”.
For `C[C@H]1CCCCO[C@H](CN(C)S(=O)(=O)c2cccs2)[C@@H](C)CN([C@@H](C)CO)C(=O)c2cc(NC(=O)Nc3ccccc3)ccc2O1`, the cytotoxicity call was “inactive”.
`O=C1O[C@H](c2ccccc2)[C@H](c2ccccc2)N2[C@H]1[C@@H](C(=O)N1CCCCCCC1)[C@]1(C(=O)Nc3ccc(C#CCCO)cc31)[C@H]2c1ccc(OCCO)cc1` was tested, and the cytotoxicity call was “inactive”.
In the case of `CCn1c(-n2nc(C)cc2C)nc2c1c(=O)n(CC(N)=O)c(=O)n2C`, the cytotoxicity call is reported as “inactive”.
With `C[C@H](CO)N1C[C@H](C)[C@H](CN(C)Cc2ccccc2)Oc2c(NC(=O)C3CCOCC3)cccc2C1=O` the cytotoxicity call was “inactive”.
`O=C(C[C@@H]1CC[C@@H](NC(=O)CN2CCOCC2)[C@@H](CO)O1)NCc1cccc(F)c1` was tested, and the cytotoxicity call was “inactive”.
With `C[C@@H]1CN([C@H](C)CO)C(=O)c2cc(NS(=O)(=O)c3cn(C)cn3)ccc2O[C@@H](C)CCCCO[C@H]1CN(C)C(=O)Nc1ccc(C(F)(F)F)cc1` the cytotoxicity call was “inactive”.
`C[C@@H]1CN([C@H](C)CO)C(=O)c2cccc(NS(=O)(=O)c3cn(C)cn3)c2O[C@@H]1CN(C)Cc1ccc(C(=O)O)cc1` was tested, and the cytotoxicity call was “inactive”.
With `O=C1C=CC(O)(CC(=O)OC[C@H]2O[C@@H](OC(=O)CC3(O)C=CC(=O)C=C3)[C@H](O)[C@@H](O)[C@H]2O)C=C1` the cytotoxicity call was “inactive”.
With `C[C@@H]1CN([C@H](C)CO)C(=O)c2cc(NC(=O)Nc3ccc(F)cc3)ccc2O[C@@H](C)CCCCO[C@H]1CN(C)Cc1ccncc1` the cytotoxicity call was “inactive”.
For `O=C(Cc1ccncc1)Nc1ccc2c(c1)[C@@H]1C[C@@H](CC(=O)N3CCc4ccccc4C3)O[C@H](CO)[C@@H]1O2`, the cytotoxicity call was “inactive”.
In the case of `CCOC(=O)N1CCC(O)CC1`, the cytotoxicity call is reported as “inactive”.
With `C[C@H](CO)N1C[C@H](C)[C@H](CN(C)S(=O)(=O)c2ccc(F)cc2)Oc2c(NC(=O)c3cnccn3)cccc2C1=O` the cytotoxicity call was “inactive”.
In the case of `C[C@@H]1CN([C@@H](C)CO)C(=O)c2cc(NS(C)(=O)=O)ccc2O[C@H]1CN(C)Cc1ccc(C(=O)Nc2ccccc2N)cc1`, the cytotoxicity call is reported as “inactive”.
With `COc1ccc(NC(=O)N(C)C[C@@H]2OCCCC[C@H](C)Oc3ccc(NS(=O)(=O)c4c(C)noc4C)cc3C(=O)N([C@@H](C)CO)C[C@H]2C)cc1` the cytotoxicity call was “inactive”.
In the case of `O=C(C[C@H]1CC[C@@H]2[C@H](COC[C@@H](O)CN2S(=O)(=O)c2ccccc2Cl)O1)NCc1ccccc1Cl`, the cytotoxicity call is reported as “inactive”.
With `C[C@@H]1CCCCO[C@@H](CN(C)Cc2ccncc2)[C@H](C)CN([C@H](C)CO)C(=O)c2cc(NC(=O)c3ccccc3)ccc2O1` the cytotoxicity call was “inactive”.
In the case of `C[C@@H]1CN([C@@H](C)CO)C(=O)c2cc(-c3cccc(C#N)c3)cnc2O[C@H]1CN(C)C(=O)c1cnccn1`, the cytotoxicity call is reported as “inactive”.
`NCc1ccoc1` was tested, and the cytotoxicity call was “inactive”.
For `C[C@H](CO)N1C[C@H](C)[C@@H](CN(C)Cc2cncnc2)Oc2cc(C#CC3CCCC3)ccc2S1(=O)=O`, the cytotoxicity call was “inactive”.
For `COc1ccc(CN(C)C[C@@H]2OCCCC[C@@H](C)Oc3ccc(NC(=O)Nc4c(C)noc4C)cc3C(=O)N([C@H](C)CO)C[C@H]2C)cc1`, the cytotoxicity call was “inactive”.
For `C[C@@H]1CN([C@H](C)CO)C(=O)c2cc(NS(=O)(=O)c3cccs3)ccc2O[C@H]1CN(C)S(C)(=O)=O`, the cytotoxicity call was “inactive”.
For `OC1CCOCC1`, the cytotoxicity call was “inactive”.
With `COCC#Cc1ccc2c(c1)O[C@H](CN(C)Cc1ccc(F)cc1)[C@@H](C)CN([C@@H](C)CO)S2(=O)=O` the cytotoxicity call was “inactive”.
With `C[C@H]1CN([C@@H](C)CO)C(=O)c2cc(NS(=O)(=O)c3cn(C)cn3)ccc2O[C@@H]1CN(C)Cc1ccc(C(=O)Nc2ccccc2N)cc1` the cytotoxicity call was “inactive”.
